# Experimental data from PubChem BioAssay AID1347165 (National Center for Advancing Translational Sciences (NCATS), 2019).
# Out of some 220,000 compounds screened, about 5,700 (2.6%) were called active. Inconclusive results, whose numbers are uncertain, are shown with a selection of clear calls. Calls follow the shape of the dose curve; as a rule, active = well fitted inhibition curve with a large enough effect; inconclusive = small, poorly fitted or top-dose-only effect; inactive = no such curve, though single readings can be large or run the other way. Potencies of inconclusive entries are doubtful fits and often do not repeat.
# Molecular target: Lysine-specific demethylase 5B (Homo sapiens) (UniProt Q9UGL1)
# Chain of UniProt Q9UGL1 (Q9UGL1 whole entry, looked up): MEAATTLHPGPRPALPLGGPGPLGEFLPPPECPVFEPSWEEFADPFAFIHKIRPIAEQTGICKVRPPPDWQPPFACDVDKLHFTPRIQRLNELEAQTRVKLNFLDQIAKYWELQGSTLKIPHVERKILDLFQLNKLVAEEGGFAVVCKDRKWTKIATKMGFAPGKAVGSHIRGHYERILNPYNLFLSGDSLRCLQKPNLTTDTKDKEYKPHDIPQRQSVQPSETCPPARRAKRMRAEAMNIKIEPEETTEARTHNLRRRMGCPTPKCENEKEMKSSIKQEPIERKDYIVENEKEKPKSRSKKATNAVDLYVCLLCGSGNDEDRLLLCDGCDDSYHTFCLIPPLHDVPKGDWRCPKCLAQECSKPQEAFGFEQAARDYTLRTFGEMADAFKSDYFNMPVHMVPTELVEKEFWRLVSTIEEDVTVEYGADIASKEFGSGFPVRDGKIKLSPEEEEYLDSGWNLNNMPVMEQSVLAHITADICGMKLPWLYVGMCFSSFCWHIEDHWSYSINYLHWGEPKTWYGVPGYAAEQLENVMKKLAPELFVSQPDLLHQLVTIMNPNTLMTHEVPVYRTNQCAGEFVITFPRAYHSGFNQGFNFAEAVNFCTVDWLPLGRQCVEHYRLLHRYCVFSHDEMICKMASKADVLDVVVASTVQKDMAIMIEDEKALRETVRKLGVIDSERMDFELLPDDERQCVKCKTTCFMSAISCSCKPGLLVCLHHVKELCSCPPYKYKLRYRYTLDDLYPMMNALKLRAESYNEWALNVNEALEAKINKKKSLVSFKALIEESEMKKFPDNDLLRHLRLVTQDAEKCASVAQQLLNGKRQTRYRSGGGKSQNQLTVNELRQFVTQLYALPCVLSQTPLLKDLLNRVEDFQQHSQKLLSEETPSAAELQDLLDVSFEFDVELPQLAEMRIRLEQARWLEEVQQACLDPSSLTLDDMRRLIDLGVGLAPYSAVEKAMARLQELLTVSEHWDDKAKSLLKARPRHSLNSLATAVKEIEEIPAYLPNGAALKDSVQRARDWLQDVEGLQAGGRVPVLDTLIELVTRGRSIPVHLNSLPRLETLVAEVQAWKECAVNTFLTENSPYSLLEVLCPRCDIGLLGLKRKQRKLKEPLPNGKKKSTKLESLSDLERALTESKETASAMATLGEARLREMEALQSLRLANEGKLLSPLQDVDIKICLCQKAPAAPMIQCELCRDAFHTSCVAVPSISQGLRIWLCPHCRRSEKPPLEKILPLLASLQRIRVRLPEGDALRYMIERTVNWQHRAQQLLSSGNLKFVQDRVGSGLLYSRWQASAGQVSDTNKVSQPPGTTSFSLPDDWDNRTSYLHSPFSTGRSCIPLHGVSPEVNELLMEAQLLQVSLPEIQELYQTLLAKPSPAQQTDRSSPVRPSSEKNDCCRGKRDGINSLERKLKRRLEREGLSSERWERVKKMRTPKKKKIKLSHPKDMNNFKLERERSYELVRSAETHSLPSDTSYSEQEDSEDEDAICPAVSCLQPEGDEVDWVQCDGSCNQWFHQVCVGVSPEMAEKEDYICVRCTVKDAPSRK
# Experiment: Primary screen for KDM5B Histone Demethylases FDH-coupled qHTS; also: nearly all actives have a fitted effect of over 70% in size; as to activity change, negative = inhibition: 0% is about no effect
# Settings: FDH-coupled NADH fluorescence (FDH is formaldehyde dehydrogenase); activity change, negative = inhibition: at 57.7 µM (top of the series) unless noted
# Outline: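 Compound dilutions met 200 nM (final) KDM5BΔAP for 10 min at room temperature before substrate addition. The substrate mix held 12.5 µM H3K4me3 with cofactors 25 µM α-ketoglutarate and 50 µM Fe²⁺. NADH signal gain over 30 min defined activity.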
# Potency is read from the fitted curve at half-maximal effect; tags tell the direction and shape of the fitted curve.
Compound,Potency,"activity change, negative = inhibition"
COc1ccc(NC(=O)c2c(NCc3cccs3)sc3c2CCC(C)C3)c(OC)c1 (stereo not drawn),"inconclusive: 25.1 µM [inhibitor, partial curve, poor fit]",
COc1ccccc1N(C)S(=O)(=O)c1ccc(C(=O)Nc2c(C)cccc2C(C)C)cc1,inactive,
O=C(C1CCCO1)N1CCN(c2nc(-c3cccnc3)nc3c2CNC3)CC1 (stereo not drawn),"inconclusive: 15.8 µM [inhibitor, partial curve, poor fit]",
COc1cc(OC)c2c(C)c(CC(=O)NCc3ccc(F)cc3)c(=O)oc2c1,"inconclusive: 2 µM [inhibitor, partial curve, poor fit]",
Cc1ccc(S(=O)(=O)c2c(O)cc(C)c(NS(=O)(=O)c3ccc(Br)cc3)c2C)cc1,,inconclusive: -40.4% [inhibitor]
CC(C)(C)c1ccc(NC(=O)O[C@@H]2CO[C@H]3[C@@H]2OC[C@@H]3Nc2nccc(-c3cccs3)n2)cc1,"inconclusive: 6.31 µM [inhibitor, partial curve]",
CC(NC(=O)c1ccc[n+]([O-])c1)c1ccc2ccccc2c1 (stereo not drawn),inactive,
COCCNC(=O)CC(c1ccccc1OC)c1cn(C)c2ccccc12 (stereo not drawn),"inconclusive: 28.2 µM [inhibitor, partial curve, poor fit]",
COCCN1Cc2[nH]nc(-c3cc(OC)ccc3OC)c2CC1=O,"inconclusive: 39.8 µM [inhibitor, partial curve, poor fit]",
CN1CCC(Oc2ncccc2C(=O)NCCc2ccncc2)CC1,"inconclusive: 8.91 µM [inhibitor, partial curve, poor fit]",
COc1ccc2cc(C3CN(CCC(=O)NC(C)(C)C)CCO3)ccc2c1 (stereo not drawn),"inconclusive: 7.94 µM [inhibitor, partial curve, poor fit]",
CCN(CC)C(=O)Oc1nnc(SC(C)C)n1-c1ccc(Cl)cc1,inactive,
CCc1cccc2c(C(CC(=O)NCC(C)C)c3ccc(OC)c(OC)c3)c[nH]c12 (stereo not drawn),"inconclusive: 25.1 µM [inhibitor, single point]",
CCCCn1cc(S(=O)(=O)c2ccc(C)cc2)c(=O)c2cc(F)c(N3CCCCC3)cc21,"inconclusive: 2.82 µM [inhibitor, full curve, poor fit]",
Cc1ccccc1-n1nc(C)c([C@H]2C=C[C@@H](OC(=O)NC(C)C)C2)c1C,inactive,
Cc1cc(O)c(C(c2ccccc2)N2CCCCC2)c(=O)n1Cc1ccco1 (stereo not drawn),"inconclusive: 25.1 µM [inhibitor, single point]",
Cn1cncc1-c1nnc([C@H]2CCN(CC3CCCCC3)C2)o1,"inconclusive: 35.5 µM [inhibitor, single point]",
CC(=O)N1c2ccccc2C(=O)C1N1CCN(c2ccccc2F)CC1 (stereo not drawn),"inconclusive: 28.2 µM [inhibitor, single point]",
Cc1ccc(NC(=O)CSc2nc3ccc(S(=O)(=O)N4CCOCC4)cc3[nH]2)cc1Cl,"inconclusive: 28.2 µM [inhibitor, partial curve, poor fit]",
CCOC(=O)c1ccc(NC2=CC(c3ccc(OCC)cc3)N(c3ccc(C(=O)OCC)cc3)C2=O)cc1 (stereo not drawn),,inconclusive: -34% [inhibitor]
CC(NC(=S)NC(C)C1CC2CCC1C2)c1ccccc1 (stereo not drawn),inactive,

Compound,Potency,"activity change, negative = inhibition"
Cc1ccc(-c2nc(CCNC(=O)c3ccc(C)c(C)c3)cs2)cc1,"inconclusive: 10 µM [inhibitor, partial curve, poor fit]",
CC(C)CNC(=O)c1cc(C2CC2)nc2c1c(C1CCNC1)nn2C (stereo not drawn),active: 89.1 µM,
CC1=C[C@@H](CNC(=O)NC(C)C)[C@H](C(C)C)C[C@H]1Cc1nnc(-c2ccccc2F)o1,inactive,
COc1ccc(CCNC(=O)CCc2c(C)c3cc4c(C)c(C)oc4cc3oc2=O)cc1OC,"inconclusive: 3.98 µM [inhibitor, partial curve, poor fit]",
Cc1cccc(CN2C[C@@H](C(=O)O)C[C@H](C(=O)N3CCN(C)CC3)C2)n1,"inconclusive: 7.08 µM [inhibitor, partial curve]",
COc1cc(CNC(=O)c2cnc3c(c2)N(c2ccccc2OC)CCC3)cc(OC)c1,"inconclusive: 56.2 µM [inhibitor, single point]",
COCCOC(=O)c1ccc(NC(=O)COc2ccc3c(C)cc(=O)oc3c2)cc1,"inconclusive: 28.2 µM [inhibitor, partial curve, poor fit]",
CSc1cccc(NC(=O)c2cnn(-c3ccc(F)cc3)c2-n2cccc2)c1,"inconclusive: 12.6 µM [inhibitor, partial curve, poor fit]",
CCOc1ccccc1NC(=O)Cn1c(C)cc(=O)n2nc(-c3cccs3)nc12,"inconclusive: 15.8 µM [inhibitor, partial curve, poor fit]",
O=C1Nc2ccc(-c3ccc4c(c3)OCO4)cc2C(=O)N2CCN(C(=O)COc3ccccc3)C[C@H]12,active: 28.2 µM,
COc1ccc(-c2cnc3n[nH]c(-c4ccccc4C)c3n2)cn1,"inconclusive: 5.62 µM [inhibitor, full curve, poor fit]",
Cc1c(C)c2ccc(OCC(=O)c3ccccc3)c(C)c2oc1=O,inactive,
CC(C)(Oc1nn(CC2CCOCC2)c2ccccc12)C(=O)NC1CCC(O)CC1 (stereo not drawn),"inconclusive: 39.8 µM [inhibitor, partial curve, poor fit]",
Cc1ccc(NC(=O)C2=C(c3ccccc3)NC(=S)NC2c2ccc(Br)cc2)cc1 (stereo not drawn),"inconclusive: 39.8 µM [inhibitor, partial curve, poor fit]",
Cc1cc(N2CCN(C)CC2)nc2ccc(NC(=S)NCc3cccs3)cc12,"inconclusive: 28.2 µM [inhibitor, partial curve, poor fit]",
CN(Cc1cccc(C#N)c1)C(=O)NCCNC(=O)CC1CCCC1,inactive,
COc1ccccc1C1CC(c2ccc(Br)cc2)=NN1CN1C(=O)C(=O)c2ccccc21 (stereo not drawn),"inconclusive: 39.8 µM [inhibitor, single point]",
CCCN(CCC)CC(=O)Nc1sc2c(c1C(=O)Nc1ccc(OC)cc1)CCC2,"inconclusive: 28.2 µM [inhibitor, single point]",
Cc1ccc(CSc2nc3cccnc3n2Cc2ccc(C(=O)NCc3ccco3)cc2)cc1,"inconclusive: 35.5 µM [inhibitor, partial curve, poor fit]",
COc1ccc(OC)c(NC(=O)c2ccc(CN3CCc4ccccc4C3)cc2)c1,"inconclusive: 31.6 µM [inhibitor, partial curve, poor fit]",
CC(C)(C)C1CCC2(CC1)C(C(=O)c1ccc(F)cc1)C2(C#N)C#N (stereo not drawn),inactive,

Compound,Potency,"activity change, negative = inhibition"
Cc1cccc(-c2nc(CN3CCCC(C(=O)N4CCN(c5cc(Cl)ccc5C)CC4)C3)c(C)o2)c1 (stereo not drawn),"inconclusive: 44.7 µM [inhibitor, single point]",
N#Cc1ccccc1S(=O)(=O)N1CCN(CC(O)COc2ccccc2F)CC1 (stereo not drawn),"inconclusive: 22.4 µM [inhibitor, partial curve, poor fit]",
O=C(c1ccoc1)N1CCN(C(=O)N2CC3CC(C2)[C@H]2CCCC(=O)N2C3)CC1 (stereo partly drawn),inactive,
CC(C)(C)C(=O)Nc1ccc(-c2nc3ccc(NC(=O)C(C)(C)C)cc3[nH]2)cc1,"inconclusive: 35.5 µM [inhibitor, partial curve, poor fit]",
CC(C)CNC(=O)c1ccc2c(c1)C1(CCN(C)C1)CN2CC1CC1 (stereo not drawn),active: 35.5 µM,
O=C1NC2(CCN(S(=O)(=O)c3ccc(F)cc3)CC2)N=C1c1cccs1,inactive,
CCc1nc2ccc(C(=O)N3CCN(c4cc(Cl)ccc4C)CC3)cc2nc1CC,"inconclusive: 25.1 µM [inhibitor, partial curve, poor fit]",
Cn1ccc(CN2CCn3c(nn(-c4ccc(F)cc4F)c3=O)C2)n1,"inconclusive: 17.8 µM [inhibitor, partial curve, poor fit]",
Cc1noc([C@@H]2CNC[C@H]2C(=O)N2CC=C(c3ccccc3)CC2)n1,"inconclusive: 35.5 µM [inhibitor, partial curve, poor fit]",
Cc1cc(Cl)ccc1OCC(=O)OCC(=O)Nc1ccccc1,inactive,
COc1ccc2c(c1)c1c(c(=O)n(-c3ccccc3C)c(=O)n1Cc1cccc(C(F)(F)F)c1)n2C,"inconclusive: 3.55 µM [inhibitor, full curve, poor fit]",
O=C(O)COc1ccc(-c2nccc3c2C(=O)N(Cc2c[nH]c4ccccc24)CC(COc2ccc(F)cc2F)O3)cc1 (stereo not drawn),inactive,
COc1cccc(C(=O)Nc2nonc2-c2ccc(OC(C)C)cc2)c1,inactive,
COc1ccc(NC(=O)C2CC(=O)N(Cc3ccccc3)C2)cc1S(=O)(=O)N1CCCCC1 (stereo not drawn),inactive,
COc1nc(C(=O)NCCC(=O)N2CCCCC2)cc2ccccc12,inactive,
CCCN(CCC)c1ccc(NC(=O)c2ccccc2Cl)cc1C(=O)O,inactive,
Cc1cccc(CNC(=O)Cn2c(-c3cccs3)cc3ccccc32)c1,"inconclusive: 31.6 µM [inhibitor, partial curve, poor fit]",
COc1ccc2cc(C(=O)NCC3CC3)c(C)nc2c1,"inconclusive: 25.1 µM [inhibitor, single point]",
COc1ccc(C2Cn3nnc(-c4noc(-c5cccc(OC)c5)n4)c3CO2)cc1 (stereo not drawn),"inconclusive: 25.1 µM [inhibitor, partial curve, poor fit]",
COc1ccc(C2C(C(=O)Nc3ccc(C)cc3)=C(C)Nc3nc4ccccc4n32)cc1OC (stereo not drawn),inactive,
COc1cccc(NC(=O)CN2C(=O)c3cccc4cccc2c34)c1,"inconclusive: 35.5 µM [inhibitor, partial curve, poor fit]",
